In PubChem BioAssay AID624417 (National Center for Advancing Translational Sciences (NCATS), 2012):
Screen size: about 410,000 compounds; about 6,400 (1.6%) were called active. The shares of active, inactive and inconclusive entries below differ from those in the screen. Calls follow the shape of the dose curve; as a rule, active = well fitted inhibition curve with a large enough effect; inconclusive = small, poorly fitted or top-dose-only effect; inactive = no such curve, though single readings can be large or run the other way. Potencies of inconclusive entries are left out as doubtful fits.

target: Glucagon-like peptide 1 receptor (Homo sapiens) (UniProt P43220); test: qHTS of GLP-1 Receptor Inverse Agonists (Inhibition Mode); conditions: HEK293 GLP-1R CRE-luciferase, luminescence, 24 h, GLP-1R form is constitutively active; activity change, negative = inhibition: at 38.3 µM (top of the series) unless noted; also: nearly all actives have a fitted effect of over 55% in size
Outline: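 Using stably transfected HEK293 (constitutively active GLP-1R, cAMP-luciferase reporter), compounds were incubated 24 hr and luciferase measured by luminescence.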
% is scaled to controls: 0 for no effect and ±100 for the full control effect; potency is read from the fitted curve at half-maximal effect; tags tell the direction and shape of the fitted curve.

Chain of UniProt P43220 (P43220 whole entry, looked up): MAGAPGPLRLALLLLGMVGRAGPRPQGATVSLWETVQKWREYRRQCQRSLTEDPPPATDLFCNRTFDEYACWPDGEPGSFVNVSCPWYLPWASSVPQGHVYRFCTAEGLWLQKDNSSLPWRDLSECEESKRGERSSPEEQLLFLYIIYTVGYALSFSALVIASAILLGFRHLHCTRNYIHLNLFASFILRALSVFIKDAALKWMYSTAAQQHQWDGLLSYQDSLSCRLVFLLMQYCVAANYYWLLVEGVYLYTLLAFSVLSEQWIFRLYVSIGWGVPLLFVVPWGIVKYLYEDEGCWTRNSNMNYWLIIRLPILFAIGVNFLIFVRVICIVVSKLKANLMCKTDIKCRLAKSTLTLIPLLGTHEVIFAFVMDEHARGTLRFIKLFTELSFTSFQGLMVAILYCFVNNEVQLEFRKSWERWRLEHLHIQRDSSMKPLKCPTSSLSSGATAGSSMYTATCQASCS

| Structure (SMILES) | Potency | activity change, negative = inhibition |
| --- | --- | --- |
| CC(C)c1ccc(NC(=O)CCNS(=O)(=O)c2cccc3nsnc23)cc1 | inconclusive [inhibitor, partial curve, poor fit] | – |
| COc1ccccc1CCC(=O)Nc1cccc(S(=O)(=O)N2CCOCC2)c1 | inconclusive [inhibitor, single point] | – |
| CC12CCC(=O)N1C(C(=O)Nc1nc(-c3ccc(F)c(F)c3)cs1)CS2 (configuration not stated) | inconclusive [inhibitor, partial curve] | – |
| CCOC(=O)CNC(=O)c1ccc(SCC)cc1 | – | inactive: 1.83% |
| CCCCNC(=S)N(C)/N=C/c1c(C)[nH]c2ccccc12 | inconclusive [inhibitor, partial curve, poor fit] | – |
| CCOc1ccccc1OCCCC(=O)ON=C(N)c1ccccc1 | inconclusive [inhibitor, single point] | – |
| C=CCNC(=S)N/N=C/c1cn(C)c2ccccc12 | inconclusive [inhibitor, full curve, poor fit] | – |
| CC1=Nc2ccccc2N=C(NC(=O)c2ccccc2)C1c1ccc(Cl)cc1 (configuration not stated) | inconclusive [inhibitor, partial curve, poor fit] | – |
| COc1ccc(OC)c(NS(=O)(=O)c2ccc(Br)s2)c1 | inconclusive [inhibitor, partial curve, poor fit] | – |
| COc1ccc(SC[C@H](Cc2ccccc2)N2CC[C@@H](C)CCC2=O)cc1 | inconclusive [inhibitor, single point] | – |
| FC(F)(F)c1cc(-c2cccs2)nc(-n2cc(Br)cn2)n1 | inconclusive [inhibitor, single point] | – |
| N#Cc1nc(COc2ccc(Br)cc2)oc1N1CCN(Cc2ccccc2)CC1 | inconclusive [inhibitor, single point] | – |
| CCN(CC)CCCn1c2c(c(SCC(=O)Nc3nccs3)nc1=O)CCC2 | inconclusive [inhibitor, single point] | – |
| O=C(O)CN1C(=O)/C(=C\c2ccccc2OCc2ccc(F)cc2)SC1=S | inconclusive [inhibitor, single point] | – |
| CCCCOc1ccc(C(=O)N(Cc2nc(-c3ccc(Cl)cc3)no2)C(C)C)cc1 | inconclusive [inhibitor, single point] | – |
| COCCNc1nc(-c2cc(C)c(C)cc2C)cs1 | inconclusive [inhibitor, single point] | – |
| Nc1cccc(-c2nc3ccc(N)cc3s2)c1 | inconclusive [inhibitor, single point] | – |
| CCOc1ccc(CCNC(=O)c2ccc(CS(=O)Cc3ccc(Cl)cc3)o2)cc1 (configuration not stated) | inconclusive [inhibitor, single point] | – |
| Cc1ccc(-n2c(-c3ccccc3)c[n+]3c2CCc2ccccc2-3)c(C)c1 | inconclusive [inhibitor, full curve, poor fit] | – |
| Cc1onc(-c2ccccc2)c1C(O)c1ccc(F)cc1 (configuration not stated) | inconclusive [inhibitor, partial curve, poor fit] | – |
| CN(CC(=O)Nc1cccc(S(=O)(=O)N2CCCC2)c1)Cc1ccccc1 | inconclusive [inhibitor, partial curve, poor fit] | – |

| Structure (SMILES) | Potency | activity change, negative = inhibition |
| --- | --- | --- |
| CCc1ccccc1Nc1nn2c(=O)c3ccc(C(=O)NCc4ccccc4Cl)cc3nc2s1 | inconclusive [inhibitor, full curve, poor fit] | – |
| Cc1ccc(NC(=O)NC2CC(=O)N(c3ccc4c(c3)OCCO4)C2)c(C)c1 (configuration not stated) | inconclusive [inhibitor, single point] | – |
| O=C(NCCc1ccccn1)C(F)(F)C(F)(F)C(F)(F)C(F)(F)C(F)(F)C(F)(F)C(F)(F)C(F)F | inconclusive [inhibitor, partial curve, poor fit] | – |
| C=CCn1c(SCC(=O)NCc2ccc3c(c2)OCO3)nnc1C1CCCCC1 | inconclusive [inhibitor, full curve, poor fit] | – |
| CCOC(=O)N1CCN(CC(O)COc2cc(C)ccc2C(C)C)CC1 (configuration not stated) | inconclusive [inhibitor, partial curve, poor fit] | – |
| CC(c1nc2ccccc2[nH]1)n1c(=O)c(-c2cccs2)nc2ccccc21 (configuration not stated) | inconclusive [inhibitor, partial curve, poor fit] | – |
| COc1ccc(CCC(C)NC(=O)CCc2ccccc2)c(OC)c1 (configuration not stated) | inconclusive [inhibitor, single point] | – |
| Cc1ccc(-c2noc(CCC(=O)Nc3ccc(C)cn3)n2)cc1 | – | inactive: 3.86% |
| CCOC(=O)N1CCC2(CC1)C(C#N)=C(N)Oc1n[nH]c(CSc3ccc(C)cc3)c12 | inconclusive [inhibitor, partial curve, poor fit] | – |
| COc1ccc(Cl)cc1NC(=O)Cn1cc(S(=O)(=O)Cc2cccc(Cl)c2)c2ccccc21 | inconclusive [inhibitor, partial curve, poor fit] | – |
| O=C(Nc1nc2ccccc2s1)C1CCN(S(=O)(=O)c2cc([N+](=O)[O-])ccc2Cl)CC1 | inconclusive [inhibitor, partial curve, poor fit] | – |
| Clc1ccc(OCCCNCc2ccccc2)c(Br)c1 | inconclusive [inhibitor, partial curve, poor fit] | – |
| Cc1ccc(OCC(=O)Nc2ccc3nc(SCC(=O)N(C)c4ccccc4)sc3c2)cc1 | inconclusive [inhibitor, single point] | – |
| Cc1ccccc1N=CC=C1OC(C)(C)C(C)(C)O1 | inconclusive [inhibitor, partial curve, poor fit] | – |
| Cc1ccc(S(=O)(=O)N2CCC(C(=O)OCC(=O)N3C(C)CCCC3C)CC2)cc1C (configuration not stated) | inconclusive [inhibitor, partial curve, poor fit] | – |
| COc1cc(C(=O)NCCC(C)C)ccc1OCc1ccc(Cl)cc1Cl | inconclusive [inhibitor, partial curve, poor fit] | – |
| COc1ccc(NC(=O)c2sc3nc[nH]c(=O)c3c2C)cc1OC | – | inactive: 15.7% |
| COc1ccc(CNC(c2ccccc2)c2ccc(Cl)cc2)cc1 (configuration not stated) | inconclusive [inhibitor, single point] | – |
| Cc1cc(Br)c(OCC(=O)NN)c2c1CCC2 | inconclusive [inhibitor, partial curve] | – |
| CCCCN1CC(COCc2ccccc2)Oc2cccc(F)c2S1(=O)=O (configuration not stated) | inconclusive [inhibitor, single point] | – |
| COc1cc2ncc3c(-c4ccccc4)nn(-c4ccc(C)cc4)c3c2cc1OC | – | inactive: 14.3% |

| Structure (SMILES) | Potency | activity change, negative = inhibition |
| --- | --- | --- |
| O=S(=O)(c1ccccc1)N1CCN=C1SCc1ccccc1Cl | inconclusive [inhibitor, partial curve, poor fit] | – |
| COc1ccc(CNC(=O)CN2C(=O)c3ccc([N+](=O)[O-])cc3C2=O)cc1 | – | inactive: -7.2% |
| NC(=O)C1(N2CCCCC2)CCN(S(=O)(=O)c2cc(Cl)sc2Cl)CC1 | inconclusive [inhibitor, single point] | – |
| CC(C)c1ccc(NC(=O)C(Cc2ccccc2)NS(=O)(=O)c2ccc3c(c2)CCC(=O)N3)cc1 (configuration not stated) | – | inactive: -17% |
| Cc1cc(O)ccc1C1(c2ccc(O)cc2C)OC(=O)c2ccccc21 | inconclusive [inhibitor, single point] | – |
| O=C(NC1CCCC1)C(c1ccncc1)N(C(=O)c1ccco1)c1ccc(F)c(Cl)c1 (configuration not stated) | – | inactive: -0.354% |
| CSc1nc2ccc(NC(=O)c3c(F)cccc3F)cc2s1 | inconclusive [inhibitor, single point] | – |
| CSc1ccc(/C=N/N2CCN(Cc3ccccc3)CC2)cc1 | inconclusive [inhibitor, partial curve, poor fit] | – |
| FC(F)(F)c1nnc2c(Sc3ccccc3)nc3ccccc3n12 | inconclusive [inhibitor, partial curve, poor fit] | – |
| COc1ccccc1/C=C1\SC(=S)N(CCC(=O)NC2=NCCS2)C1=O | – | inactive: -2.91% |
| COC(=O)C1=C(C)N(c2ccc(S(N)(=O)=O)cc2)C(=O)C1 | – | inactive: 19.9% |
| Cn1ccc(C(=O)Nc2ccc3c(c2)OCCO3)n1 | inconclusive [inhibitor, partial curve, poor fit] | – |
| Cc1ccc(C)c(Nc2nnc(-c3ccc(C)c(S(=O)(=O)N4CCCCC4)c3)c3ccccc23)c1 | inconclusive [inhibitor, partial curve, poor fit] | – |
| COc1ccc2[nH]c(C(=O)N3CCNCC3)cc2c1OC | – | inactive: 11.7% |
| O=c1n2c(c(O)n1C1CCCCC1)C(c1ccccc1)=Nc1ccccc1C2 | inconclusive [inhibitor, single point] | – |
| COc1ccc(-c2nc(NC3=NCCCCC3)sc2C)cc1 | inconclusive [inhibitor, partial curve, poor fit] | – |
| CC1=C(C(=O)N2CCOCC2)CC(CC(=O)NCCCCc2ccccc2)C(=O)N1Cc1ccc(F)cc1 (configuration not stated) | inconclusive [inhibitor, partial curve] | – |
| CCOC(=O)c1cc(-c2ccc(OC)cc2)nn1Cc1ccccc1 | inconclusive [inhibitor, single point] | – |
| Cc1cc2nc(SCCOC(=O)Nc3cccc(Cl)c3)nc(C)c2cc1C | inconclusive [inhibitor, single point] | – |
| NC(=S)NN=Cc1nccc2c(C(F)(F)C(F)(F)C(F)(F)F)cccc12 | inconclusive [inhibitor, full curve, poor fit] | – |
